Source: publication doi:10.1101/2021.02.05.429362 (bioRxiv, 2021)

What was measured:
GFP-Caprin-1^356-386 = biological target: T1, GFP-Caprin-1^356-386 (human); assay: BLI
T1 chain: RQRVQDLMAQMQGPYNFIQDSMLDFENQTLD

GFP-USP10^1-28 = biological target: T2, GFP-USP10^1-28 (human); assay: BLI
T2 chain: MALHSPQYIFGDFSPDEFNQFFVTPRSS

EC50 (GFP-Caprin-1^356-386): 0.18 ± 0.11 µM
EC50 (GFP-USP10^1-28): 0.02 ± 0.01 µM
B1: G3BP1-NTF2 ([…]) (domain or fragment)
chain: not shown
